Results as given in PubChem BioAssay AID1963576 (National Center for Advancing Translational Sciences (NCATS), 2024).
Among all 46,000 compounds or so, about 60 (0.1%) were called active. About 3% were inconclusive and are not listed. The call rests on the fitted dose curve; in most records, active means well fitted inhibition curve with a large enough effect; inconclusive means small, poorly fitted or top-dose-only effect; inactive means no such curve, though single readings can be large or run the other way. This is one part of the list.

Assay: Primary qHTS assay for Inhibitors of ovarian cancer metastasis using an organotypic tumor microenvironment (TME) model. Further: nearly all actives have a fitted effect of over 65% in size.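 On activity change, negative = inhibition: plate controls were DMSO wells for no effect and tomatine positive control wells for full effect.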
Conditions: SKOV3ip1-GFP adhesion/invasion on 3D omental model, fluorescence; series mostly up to 45.8 µM; activity change, negative = inhibition: at the top concentration
Procedure, shortened: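 A 3D layer of primary human omental fibroblasts, mesothelial cells, fibronectin and collagen I, grown 48 hr, received SKOV3ip1-GFP cells in serum-free medium plus compounds at 0.36-46 umol/L. After 2 hr RT and 16 hr 37 C, fixed adherent GFP cells were counted; normalized to DMSO and tomatine.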

Activity change, negative = inhibition, inactive:
Cc1ccc(C)c(CN2C(=O)c3ccccc3Sc3ccc(C(=O)NCc4cccs4)cc32)c1 2.15%
O=C(CCc1ccccc1)NCCc1csc(-c2cccc(F)c2)n1 -4.61%
COc1ccc(NC(=O)c2ccc3c(c2)c(C)c(C)n3Cc2ccc(F)cc2)cc1 -3.56%
CCN1CCN(Cc2nc3cc(NC(=O)c4ccccc4[N+](=O)[O-])ccc3n2CC)CC1 -6.04%
Cc1cc(C)c2c(-n3cccc3)c(C(=O)NCCCN3CCCCC3)sc2n1 5.74%
COc1cccc(CNC(=O)C(C)n2ccc3cc(S(=O)(=O)N4CCCCCC4)ccc32)c1 (stereo unspecified) -14.8%
Cc1ccccc1OCCSc1nc(C)c(Cc2ccccc2)c(=O)[nH]1 -6.11%
Cc1cccc2c1-c1sc(C(=O)NCCc3ccc(Cl)cc3)cc1CO2 -23.8%
Cc1ccc(-c2[nH]c3ccccc3c2SCCNC(=O)c2ccc(S(=O)(=O)N3CCOCC3)cc2)cc1 -9.9%
COc1ccccc1-c1cc(NC(=O)COc2ccccc2Cl)n(-c2ccccc2)n1 6.69%
Cc1c(C(=O)OC2CCCC2)[nH]c2c1C(=O)CC(c1ccc(C(C)(C)C)cc1)C2 (stereo unspecified) 10.4%
CC(C)(C)C1CCc2c(sc(NC(=O)c3cccc(Cl)c3)c2C(N)=O)C1 (stereo unspecified) -19.8%
CC1CCN(C(=O)c2cnn(-c3ccc(Cl)cc3)c2C2CCN(C(=O)OC(C)(C)C)CC2)CC1 -4.91%
Cc1ccc(-c2nc3sccn3c2Nc2ccccc2C)cc1 4%
COc1cccc(CNC(=O)CN2C(=O)CSc3ccc(S(=O)(=O)N(C)C)cc32)c1 37.7%
Cc1cccc(N2CCN(C(=O)c3nn(C)c4c3CSc3ccccc3-4)CC2C)c1 (stereo unspecified) -15.2%
CCC(=O)Oc1c(Sc2ccc(Cl)cc2)c(C)nn1C(C)(C)C 0.314%
COc1ccc(NC(=O)CSc2oc(-c3ccc(C)cc3)nc2S(=O)(=O)c2ccc(C)cc2)c(OC)c1 -13%
Cc1cc2c(cc3c(SCc4ccc(Cl)cc4)nnc(C)n32)o1 4.4%
CSCCC(NS(=O)(=O)c1ccc2c(c1)oc(=O)n2C)C(=O)N1CCN(c2cc(Cl)ccc2C)CC1 (stereo unspecified) -17.9%
Cc1ccc(CSC2=Nc3ccccc3C3=NC(CC(=O)NC4CCCCC4)C(=O)N23)c(C)c1 (stereo unspecified) -3.93%
CCC(C)NC(=O)c1cn(CC)c2ccc(S(=O)(=O)N3CCCCC3)cc2c1=O (stereo unspecified) 7.07%
CC1=C(c2ccc(C)cc2)S(=O)(=O)N=C1N1CCN(c2ccccc2)CC1 -2.39%

outcome, inactive:
Cc1ccc(C)c(NC(=O)C2CCN(c3nn4c(=O)cc(C)nc4s3)CC2)c1
COc1ccc(-c2nn(C)c3sc(C(=O)N4CCN(c5ccccc5F)CC4)cc23)cc1OC
CCN(CCCNC(=O)c1cc2cc3cc(OC)ccc3nc2s1)c1cccc(C)c1
